# The shares of active, inactive and inconclusive entries below differ from those in the screen. No potency is given beside an inconclusive call; the fits are too rough. Activity calls are given as the source filed them. Calls come from the whole dose curve; as a rule, active = well fitted curve in the direction sought with a large enough effect; inconclusive = small, poorly fitted or top-dose-only effect, or another doubt; inactive = no such curve, though single readings can be large; an effect the other way counts as inactive or inconclusive.
# Target: Ubiquitin carboxyl-terminal hydrolase 1 (Homo sapiens) (UniProt O94782)
# Assay: Inhibitors of USP1/UAF1: Pilot qHTS (AID 504865);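 note: rhodamine fluorescence freed from ubiquitin-rhodamine substrate followed over time; nearly all actives have a fitted effect of over 35% in size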; for activity change, negative = inhibition: top concentration of the series differs between compounds
# Settings: purified USP1/UAF1, Ub-rhodamine cleavage fluorescence; series mostly up to 114 µM; activity change, negative = inhibition: at the top concentration
# Method in brief: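 Deubiquitinase activity followed as kinetic rhodamine fluorescence release from 150 nM Ub-Rho. 1 nM USP1/UAF1 with compound, after 15 min room-temperature preincubation, in HEPES pH 7.8 buffer containing TCEP, EDTA, BSA and Tween-20.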
# % is set by controls: 0 for no effect and ±100 for the full control effect; potency is the fitted concentration of half-maximal effect; tags give direction and shape of the fitted curve.
# UniProt O94782, sequence (O94782 whole entry, looked up): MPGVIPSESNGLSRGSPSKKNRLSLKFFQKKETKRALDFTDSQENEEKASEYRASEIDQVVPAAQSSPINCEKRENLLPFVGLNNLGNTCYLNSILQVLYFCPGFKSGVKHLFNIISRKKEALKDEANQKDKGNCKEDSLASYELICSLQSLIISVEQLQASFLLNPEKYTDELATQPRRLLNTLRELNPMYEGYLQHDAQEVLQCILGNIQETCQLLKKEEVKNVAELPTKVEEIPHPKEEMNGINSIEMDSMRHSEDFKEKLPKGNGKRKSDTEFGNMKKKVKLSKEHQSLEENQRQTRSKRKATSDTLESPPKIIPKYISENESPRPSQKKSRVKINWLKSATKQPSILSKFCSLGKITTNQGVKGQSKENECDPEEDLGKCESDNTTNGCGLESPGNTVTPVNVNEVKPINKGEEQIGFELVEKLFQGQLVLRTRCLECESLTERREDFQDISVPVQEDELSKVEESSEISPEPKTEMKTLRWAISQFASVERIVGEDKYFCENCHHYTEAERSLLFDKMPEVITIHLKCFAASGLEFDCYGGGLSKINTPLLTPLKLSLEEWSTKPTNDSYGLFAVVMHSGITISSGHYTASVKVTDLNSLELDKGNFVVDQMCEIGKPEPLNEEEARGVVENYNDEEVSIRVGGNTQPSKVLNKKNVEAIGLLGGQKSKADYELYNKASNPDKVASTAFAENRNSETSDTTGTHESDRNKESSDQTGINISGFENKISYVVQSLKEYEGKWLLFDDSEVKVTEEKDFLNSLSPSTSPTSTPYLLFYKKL
Structure (SMILES),"activity change, negative = inhibition",Potency
COc1ccc(O)cc1,inactive: -0.751%,
CC(NCCC(c1ccccc1)c1ccccc1)c1ccccc1 (stereo not drawn),,"inconclusive [inhibitor, partial curve, poor fit]"
C=CCCCCCCCCC(=O)O,inactive: -7.85%,

# Tested on: not listed separately
# Assay: qHTS for Inhibitors of ATXN expression: Validation of Cytotoxic Assay (AID 588349)
# Settings: cytotoxicity counter-screen for ATXN expression inhibitors, cell viability; series mostly up to 57.1 µM; activity change, negative = cytotoxicity: at the top concentration
# Method in brief: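 HEK293 cells treated with titrated compound for 72 hr at 37 degrees C; viability read as intracellular ATP by CellTiter Glo luminescence.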
Structure (SMILES),"activity change, negative = cytotoxicity",Potency
CC(C)Cc1ccc(C(C)C(=O)O)cc1 (stereo not drawn),inactive: -15.5%,
NO,inactive: 13.3%,
CC(C)c1ccc2c(c1)c(SC(C)(C)C)c(CC(C)(C)C(=O)O)n2Cc1ccc(Cl)cc1,,"inconclusive [cytotoxic, single point]"
O=C(O)c1cc(=O)c2c(Cl)cc(Cl)cc2[nH]1,inactive: -12.7%,
CC(=O)Oc1ccccc1C(=O)O,inactive: -3.94%,
O=C(O)/C=C/c1ccc(O)c(O)c1,inactive: -11.2%,

# Tested on: not listed separately
# Assay: qHTS for Inhibitors of ATXN expression: Validation (AID 588378); note: nearly all actives have a fitted effect of over 75% in size
# Settings: cell-based ATXN2 expression reporter assay, luminescence; series mostly up to 57.1 µM; activity change, negative = inhibition: at the top concentration
# Method in brief: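 Luciferase luminescence (Bright-Glo) from an ATXN2-FFLuc HEK293 line after 24 h compound exposure at 37 °C, preceded by a CellTiter-Fluor fluorescence viability read. Serial dilutions of a reference ATXN2 inhibitor and a luciferase inhibitor served as controls.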
Structure (SMILES),"activity change, negative = inhibition",Potency
CC(C)Cc1ccc([C@H](C)C(=O)O)cc1,inactive: -5.49%,
CC(C)c1ccc2c(c1)c(SC(C)(C)C)c(CC(C)(C)C(=O)O)n2Cc1ccc(Cl)cc1,,"inconclusive [inhibitor, single point]"
OCC1O[C@H](O)C(Cl)C(O)C1O (stereo partly drawn),inactive: 22.5%,
C[C@](N)(Cc1ccc(O)cc1)C(=O)O,inactive: -2.83%,
